Measurements as given in paper PMC4336329 (PLoS ONE, 2015).
Out of some 310,000 compounds screened, about 2,200 (0.71%) showed an effect of 50% or more. Effects have a minus sign here. The list shows a part of the results.

These compounds were tested against human ether-à-go-go-related gene (hERG) potassium channel (human, UniProt Q12809) (assay: primary screen, population patch clamp on CHO cells stably expressing hERG).
Chain of human ether-à-go-go-related gene (hERG) potassium channel (Q12809 whole entry, looked up): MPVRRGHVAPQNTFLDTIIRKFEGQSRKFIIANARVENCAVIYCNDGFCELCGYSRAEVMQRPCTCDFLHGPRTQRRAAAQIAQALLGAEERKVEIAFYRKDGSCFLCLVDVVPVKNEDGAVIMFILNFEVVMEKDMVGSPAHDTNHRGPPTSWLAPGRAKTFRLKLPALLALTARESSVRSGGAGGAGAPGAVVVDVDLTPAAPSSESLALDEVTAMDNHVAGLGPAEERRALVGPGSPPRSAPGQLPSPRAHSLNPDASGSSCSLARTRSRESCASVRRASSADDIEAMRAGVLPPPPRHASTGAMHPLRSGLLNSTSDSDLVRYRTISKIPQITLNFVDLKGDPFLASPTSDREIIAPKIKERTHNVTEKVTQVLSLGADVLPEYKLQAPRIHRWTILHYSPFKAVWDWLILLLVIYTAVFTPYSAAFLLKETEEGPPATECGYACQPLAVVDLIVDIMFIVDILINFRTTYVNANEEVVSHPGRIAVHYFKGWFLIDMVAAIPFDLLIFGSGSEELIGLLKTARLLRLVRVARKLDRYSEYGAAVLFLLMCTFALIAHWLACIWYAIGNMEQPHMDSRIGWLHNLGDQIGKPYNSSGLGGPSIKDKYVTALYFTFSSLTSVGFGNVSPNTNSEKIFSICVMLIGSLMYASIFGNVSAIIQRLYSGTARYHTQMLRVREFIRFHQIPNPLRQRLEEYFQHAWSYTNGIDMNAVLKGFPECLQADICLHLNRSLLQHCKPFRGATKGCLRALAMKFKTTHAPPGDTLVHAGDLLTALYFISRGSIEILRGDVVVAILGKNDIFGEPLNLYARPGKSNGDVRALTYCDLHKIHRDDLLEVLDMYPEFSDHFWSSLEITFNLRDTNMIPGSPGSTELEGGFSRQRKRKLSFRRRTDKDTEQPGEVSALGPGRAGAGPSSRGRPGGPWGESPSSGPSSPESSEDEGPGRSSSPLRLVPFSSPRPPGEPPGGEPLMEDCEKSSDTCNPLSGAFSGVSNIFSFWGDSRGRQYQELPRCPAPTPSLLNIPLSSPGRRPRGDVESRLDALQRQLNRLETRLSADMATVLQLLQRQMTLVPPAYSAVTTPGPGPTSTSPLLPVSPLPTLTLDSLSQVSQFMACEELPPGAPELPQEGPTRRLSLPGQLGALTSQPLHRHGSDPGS

Structure (SMILES) | hERG current change (%, negative = inhibition) at 1uM
C=CCOC(=O)c1sc(NC(=O)c2ccco2)nc1C | 11.7%
CCCc1nc2ccccc2[nH]1 | 17%
O=c1c2ccccc2nc(/C=C/c2cccc([N+](=O)[O-])c2)n1CCO | -4.97%
COC(=O)Cc1ccc(NC(=O)c2ccc(C)c(C)c2)cc1 | 15%
CCOc1ccccc1Cn1c(=O)sc2ccccc21 | 13.4%
CCN(C(=O)c1cnc(NC(C)C)cc1C(F)(F)F)c1ccc(Cl)cc1Cl | 11.2%
CCc1nccn1CCC(=O)N1CCCC(N2CCN(c3cccc(Cl)c3)CC2)C1 (centres unmarked) | -3.15%
COc1ccc(NC(=O)CSc2nc3c(c(=O)n2-c2ccc(C)cc2)SCC3)c(OC)c1 | 4.24%
CC(=O)NNc1ncnc2c1cnn2-c1ccc(C)c(C)c1 | 13.6%
COc1cccc(CNc2nccs2)c1O | 12.9%
O=C(NCc1ccccc1)c1ccc(NC2=NC3CS(=O)(=O)CC3S2)cc1 (centres unmarked) | 7.01%
CC1Sc2ccc(S(=O)(=O)CCC(=O)NCc3ccccc3Cl)cc2NC1=O (centres unmarked) | 15%
CSc1nn(-c2ccc(C(=O)OC(C(=O)NC(N)=O)C(C)C)cc2)c(=S)s1 (centres unmarked) | 9.82%
COc1ccccc1N1CCN(Cc2c(F)cccc2F)CC1 | -16%
CC(C)c1ccc(C2(C)NC(=O)N(CC(=O)N3CCN(C(=O)c4cccs4)CC3)C2=O)cc1 (centres unmarked) | 3.27%
Cc1cc(C)nc(N2CCC(C(=O)NNC(=O)c3ccccc3)CC2)n1 | 14.3%
CCN(C(=O)CN(C)Cc1c(F)cccc1Cl)c1c(N)n(Cc2ccccc2)c(=O)[nH]c1=O | 12.8%
O=C(COC(=O)CCCN1C(=O)c2cccc3cccc(c23)C1=O)Nc1cccc(Br)c1 | 10.8%
O=C(CSc1nnc(COc2cccc3cccnc23)o1)N1CCN(C(=O)c2ccco2)CC1 | 11.2%

Structure (SMILES) | hERG current change (%, negative = inhibition) at 1uM
Cc1ccccc1C(=O)Nc1ccccc1C(=O)NC1CC1 | 11.6%
C/C(=N\NC(=S)NC(C)C)c1ccc(Cl)s1 | 10.6%
COc1ccc(NC2CCCN(C(=O)CCN3CCCO3)C2)cc1 (centres unmarked) | 9.49%
COc1ccc(OC)c(CCNC(=O)c2ccccc2NC(=O)C2=C(C)OCCS2)c1 | 8.14%
CCOP(=O)(OCC)C(Nc1ccccc1)c1cc(OC)ccc1OC (centres unmarked) | 10.8%
CCOC(=O)c1c(NC(=O)c2cnn3c2NC(c2cccc(OC)c2)CC3C(F)(F)F)sc2c1CCCC2 (centres unmarked) | 0.314%
CCOc1ccc(Nc2nc(N)c([N+](=O)[O-])c(N3CCOCC3)n2)cc1 | 14.4%
CCOC(=O)N1CCN(Cc2nc3ccc([N+](=O)[O-])cc3c(=O)n2-c2ccccc2F)CC1 | 0.531%
Cc1ccc(NC(=O)CN2CCC(NC(=O)c3ccccc3F)CC2)cc1C.Cl | -2.46%
COc1ccccc1N1CCN(Cc2nc(-c3ccc(F)cc3)oc2C)CC1 | -16.9%
CCOCc1cnc(C)nc1NCC(=O)c1c(C)[nH]c2ccc(OC)cc12.I | 4.15%
Cn1c(NCc2ccccc2)nc2c1c(=O)n(Cc1ccccc1)c(=O)n2C | 5%
CC(OC(=O)CNC(=O)c1sc2ccccc2c1Cl)c1ccccc1 (centres unmarked) | 18.5%
CC(C)Cn1c(CCCNC(=O)c2ccco2)nc2ccccc21 | 9.49%
CNc1c([N+](=O)[O-])cnn1-c1ccc(F)cc1 | 8.77%
O=C1N(Cc2cccc(Cl)c2)C[C@@H]2C[C@@H](c3cccc4ncccc34)N3CCC[C@@]123 | -2.07%
CC(C)=CC(=O)N1CCCC(N2CCN(c3ccccc3C)CC2)C1 (centres unmarked) | 3.56%
COc1ccc(NC(=O)C(c2ccc(OC)cc2)N(C)C(=O)CNC(C)=O)cc1 (centres unmarked) | 8.42%
CCOC(=O)c1sc(NC(=O)Cn2nnc3sc4c(c3c2=O)CCC(C(C)(C)C)C4)nc1C (centres unmarked) | 2.34%

Structure (SMILES) | hERG current change (%, negative = inhibition) at 1uM
O=C(OCCOCCN=C1NS(=O)(=O)c2ccccc21)c1ccccc1 | 15.9%
CC1CCN(CCOCCOc2ccccc2Br)CC1 | -4.7%
Cc1cccc(/C=C2/Sc3ccc(C(=O)NCCN4CCCC4)cc3NC2=O)c1 | 8.58%
COc1ccc(CNC(=O)N2CCN(c3cccc(C)c3C)CC2)cc1OC | 12%
CCc1nc2ccccc2c(=O)n1-c1cccc(OC)c1 | -5.11%
O=Cc1c(NCCN2CCCC2)c2ccccc2[nH]c1=O | 15.1%
O=c1c2ccccc2nc2n1CCCCC2 | 4.51%
CN1CCC(=NNC(=O)CN(c2ccccc2)S(=O)(=O)c2ccccc2)CC1 | 5.15%
COc1ccc(-c2cc(CCCC(=O)NCCc3ccccc3)no2)cc1 | 10.6%
COc1ccc([C@H]2CC(=O)C=C(c3cccc(F)c3OC)C2)cc1 | 11%
CC(C)c1ccc(OCC(=O)Nc2ccc(S(=O)(=O)Nc3ccccn3)cc2)cc1 | 14.7%
CCc1c(C)nc2ncnn2c1Nc1ccc(C(C)=O)cc1 | -17.9%
CC(=O)N=C1C=CC(=CN(O)C(C)(C)Cc2ccccc2)C=C1 | 7.98%
CC(C)(C)c1ccc(OCC(=O)Nc2ccncc2)cc1 | 20.5%
CCOC(=O)C1=C(C)NC(C)=C(C(=O)OCC)C1c1ccccc1/C=C/C(=O)OC(C)(C)C | 15.5%
CN(c1ccccc1)S(=O)(=O)c1cc(C(=O)N2CCN(c3ccccn3)CC2)ccc1Cl | 16.5%
COc1ccc(CNC(=O)CSc2nc3[nH]ncc3c(=O)n2-c2ccccc2Br)cc1 | 17.6%
C/C=C(/C)C(=O)Nc1cccc(C2=NOC3(C2)C[C@H](C(N)=O)N(C(=O)c2ccc(Cl)cc2)C3)c1 (some centres unmarked) | 1.62%
